Data published in PubChem BioAssay AID588342 (National Center for Advancing Translational Sciences (NCATS), 2011).
Several values for one entry are separate records, joined by “and”; a condition that tells them apart may be missing. Equal values may be shown once. About 25,000 (6.9%) of roughly 360,000 compounds were called active. The shares of active, inactive and inconclusive entries below differ from those in the screen. The call rests on the fitted dose curve; in most records, active means well fitted inhibition curve with a large enough effect; inconclusive means small, poorly fitted or top-dose-only effect; inactive means flat fitted curve, though single readings scatter. Potencies beside an inconclusive call are fits to weak or partial responses and may not hold up.

Each molecule was assayed against Luciferin 4-monooxygenase (Photinus pyralis) (UniProt P08659) (assay: qHTS profiling assay for firefly luciferase inhibitor/activator using purifed enzyme and Km concentrations of substrates (counterscreen for miR-21 project)). Details: purified FLuc, luminescence inhibition; series mostly up to 57.5 µM; activity change, negative = inhibition: at the top concentration.
Sequence of UniProt P08659 (P08659 whole entry, looked up): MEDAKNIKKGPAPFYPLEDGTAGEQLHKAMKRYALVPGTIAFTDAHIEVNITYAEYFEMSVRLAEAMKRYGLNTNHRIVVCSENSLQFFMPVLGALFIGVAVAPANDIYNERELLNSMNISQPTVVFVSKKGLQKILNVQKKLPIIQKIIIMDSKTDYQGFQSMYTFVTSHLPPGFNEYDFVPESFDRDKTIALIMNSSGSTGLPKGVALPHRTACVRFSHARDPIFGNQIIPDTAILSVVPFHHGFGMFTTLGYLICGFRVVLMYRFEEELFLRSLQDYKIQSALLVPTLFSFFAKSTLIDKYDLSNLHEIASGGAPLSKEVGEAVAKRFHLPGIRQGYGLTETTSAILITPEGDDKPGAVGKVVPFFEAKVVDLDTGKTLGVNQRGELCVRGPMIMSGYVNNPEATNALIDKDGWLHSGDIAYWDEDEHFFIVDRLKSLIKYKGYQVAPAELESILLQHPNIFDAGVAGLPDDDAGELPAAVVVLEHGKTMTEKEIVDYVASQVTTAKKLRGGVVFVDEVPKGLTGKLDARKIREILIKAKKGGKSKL
In short: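 Purified P. pyralis luciferase (10nM final) with 10uM D-luciferin and 10uM ATP (Km levels) in 50mM Tris acetate pH 7.5, 10mM Mg acetate, 0.01% Tween-20, 0.05% BSA; qHTS 6-point titration, ~60 µM downward; luminescence read.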
Further: nearly all actives have a fitted effect of over 55% in size.
Potency means the concentration at half of the fitted maximal effect; tags describe the fitted curve by direction and shape.
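Wherever activity change, negative = inhibition is given: plate controls were vehicle for no effect and reference inhibitor for full effect.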

SMILES | Potency | activity change, negative = inhibition
S=c1[nH]c2cc(Cl)c3cccnc3c2o1 | inconclusive: 21.3 µM [inhibitor, partial curve] | –
O=C1/C(=C/c2ccco2)SC(=S)N1c1cccnc1 | inconclusive: 26.9 µM [inhibitor, partial curve, poor fit] | –
CN(Cc1ccccc1)C(=O)c1cc(-c2ccc(Br)cc2)on1 | active: 15.1 µM | –
COc1cccc(C(=O)Nc2ccc3c(c2)C(=O)c2ccccc2C3=O)c1 | inconclusive: 5.36 µM [inhibitor, partial curve, poor fit] | –
CCc1ccc(NCc2cccn2-c2nnc(N3CCCCCC3)s2)cc1 | inconclusive: 12 µM [inhibitor, partial curve, poor fit] | –
CN1CCN(c2ccc(NC(=O)c3ccc(Oc4ccccc4)cc3)cc2)CC1 | inconclusive: 23.9 µM [inhibitor, single point] | –
COc1ccc(/C=C/C(=O)NCCOc2ccc(C)cc2)cc1 | inconclusive: 33.8 µM [inhibitor, partial curve, poor fit] | –
Cc1ccc(S(=O)(=O)N(C)c2ccc(C(=O)Nc3ccccc3C(=O)N3CCOCC3)cc2)cc1 | – | inactive: -3.49%
O=C(COC(=O)c1ccc(F)c(S(=O)(=O)N2CCOCC2)c1)c1ccc(Br)cc1 | inconclusive: 2.69 µM [inhibitor, partial curve] | –
NC(=O)COC(=O)/C=C/c1cccc(Br)c1 | – | inactive: -7.8%
CC(C)Cc1cc(C(=O)Nc2cc(Cl)ccc2Cl)no1 | inconclusive: 16.9 µM [inhibitor, partial curve, poor fit] | –
O=C(Nc1ccc(OC(F)(F)F)cc1)c1ccc2nc[nH]c2c1 | inconclusive: 23.9 µM [inhibitor, single point] | –
O=C(c1ccco1)N1CCc2ccccc21 | inconclusive: 26.9 µM [inhibitor, partial curve] | –
O=C(O)/C=C\C(=O)Nc1ccc(OC(F)F)cc1 | inconclusive: 21.3 µM [inhibitor, partial curve, poor fit] | –
COc1ccccc1/C=C/C=N/NC(=O)c1ccco1 | active: 16.9 µM | –
CCCCNC(=O)C1CC(c2cccc([N+](=O)[O-])c2)=NO1 (stereo not given) | active: 10.7 µM | –
Cc1cc(Cl)c(S(=O)(=O)Nc2ccc3c(c2)OCCO3)cc1OCC(N)=O | inconclusive: 15.1 µM [inhibitor, partial curve] | –
COc1cccc(C(O)c2nccn2Cc2ccccc2)c1OC (stereo not given) | – | inactive: -1.58%
Cc1ccc(/C=N/Nc2nc(C)cc(C)n2)cc1 | inconclusive: 37.9 µM [inhibitor, single point] | –
Cc1occc1C(=O)Nc1cccc(C(=O)NCc2ccccc2)c1 | – | inactive: 0.728%
CC(=O)c1cccc(NC(=O)NCc2cccs2)c1 | inconclusive: 26.9 µM [inhibitor, single point] | –
O=C(Nc1cccc(-c2cn3c(n2)SCC3)c1)c1ccc2ccccc2n1 | active: 3.01 µM | –
COc1cc2ccccc2cc1C(=O)Nc1ccc(C)cn1 | active: 3.01 µM | –
CCC(=O)N1CCc2cc(Br)cc(S(=O)(=O)N3CCCC(C(=O)NCc4ccccc4)C3)c21 (stereo not given) | – | inactive: -2%
CCOc1ccc(-c2nc(CSc3nnc(N)s3)cs2)cc1OC | inconclusive: 37.9 µM [inhibitor, single point] | –

SMILES | Potency | activity change, negative = inhibition
COc1ccc2nc(NC(=O)c3cc(=O)c4ccccc4o3)sc2c1 | active: 1.69 µM | –
Oc1ccc(/C=N/Nc2ccc(Cl)nn2)cc1O | inconclusive: 16.9 µM [inhibitor, single point] | –
COc1ccc(C(=O)COC(=O)CCN2C(=O)C3C4CCC(C4)C3C2=O)cc1 (stereo not given) | inconclusive: 37.9 µM [inhibitor, single point] | –
Cn1c(/C(C#N)=C/c2ccc(O)cc2)nc2ccccc21 | active: 12 µM | –
COc1ccc(NC(=O)c2ncn[nH]2)cc1 | active: 15.1 µM | –
Cc1ccc(-c2cc(C(=O)N3CCN(C(=O)c4ccco4)CC3)[nH]n2)cc1C | inconclusive: 23.9 µM [inhibitor, single point] | –
O=C(CSc1nc2ccc(S(=O)(=O)N3CCOCC3)cc2[nH]1)N1CCOCC1 | inconclusive: 26.9 µM [inhibitor, partial curve, poor fit] | –
CCN(CC)c1ccc2cc(NC(=O)CCC(=O)O)c(=O)oc2c1 | active: 6.75 µM | –
COc1ccc(OCc2cc(C(=O)N3CCCN(C(C)=O)CC3)no2)c(Cl)c1 | active: 26.9 µM | –
Cc1ccc(NC(=O)Cn2c(=O)n(Cc3ccco3)c(=O)c3ccc(C(=O)NC4CCCC4)cc32)c(C)c1 | – | inactive: -1.22%
Cc1c(C(=O)Nc2ccc(S(=O)(=O)Nc3ncccn3)cc2)oc2ccc(F)cc12 | inconclusive: 9.53 µM [inhibitor, partial curve, poor fit] | –
O=C(CN(Cc1ccc(Cl)cc1)C(=O)CNS(=O)(=O)c1ccccc1)NCC1CCCO1 (stereo not given) | – | inactive: 0.51%
Brc1ccc(-c2csc(-c3ccncc3)n2)cc1 | active: 4.78 µM | –
CCCS(=O)(=O)Nc1ccc(-c2ccc3nnc(C)n3n2)cc1 | – | inactive: -1.06%
COc1cccc(NC(=O)CSc2nc3ccccc3n2C)c1 | inconclusive: 16.9 µM [inhibitor, partial curve, poor fit] and inconclusive: 26.9 µM [inhibitor, single point] | –
C/C(=C\c1ccccc1)C(=O)NCc1ccco1 | inconclusive: 19 µM [inhibitor, partial curve, poor fit] | –
COc1cc(C(=O)NCCC(=O)NCCc2ccc(Cl)cc2)cc(OC)c1OC | – | inactive: -0.0427%
O=C(CSc1ncc2c(n1)-c1ccccc1N(Cc1ccccc1)S2(=O)=O)Nc1ccccc1 | – | inactive: 1.01%
COc1ccc(C)cc1NC(=O)NCc1ccc2c(c1)CCN2C(=O)c1ccccc1 | – | inactive: -13.3%
CCOC(=O)C1CCN(C(=O)CSc2ccc(Cl)cc2)CC1 | inconclusive: 26.9 µM [inhibitor, partial curve, poor fit] | –
COc1ccc(C)cc1Nc1nc2cc(Cl)c(Cl)cc2nc1-n1nc(C)cc1C | – | inactive: -3.86%
COc1ccc(C(=O)NCCc2sc(-c3ccc(Cl)cc3)nc2C)c(OC)c1 | inconclusive: 23.9 µM [inhibitor, partial curve, poor fit] | –
Cc1ccc(C(=O)N/C(=C/c2cccs2)C(=O)N2CCCCC2)cc1 | inconclusive: 3.01 µM [inhibitor, partial curve, poor fit] | –
Cc1ccccc1NC(=O)Nc1ccc(C(F)(F)F)cc1 | active: 2.39 µM | –
Nc1ccc2oc(-c3ccc4nc[nH]c4c3)nc2c1 | active: 1.9 µM | –

SMILES | Potency | activity change, negative = inhibition
c1ccc(-c2cn3nc(-c4ccccc4)c(-c4ccccc4)nc3n2)cc1 | – | inactive: -2.06%
Cc1cc(C)n2nc(SCC(=O)Nc3ccccc3C)nc2n1 | inactive | –
Nc1cc(=O)[nH]c(SCc2ccc(Cl)cc2Cl)n1 | – | inactive: 0.849%
Cc1ccc(-c2nc3nc4ccccc4nc3n2Cc2ccco2)cc1 | active: 10.7 µM | –
O=C(O)/C=C/C(=O)Nc1ccc(OC(F)(F)Cl)cc1 | inconclusive: 37.9 µM [inhibitor, single point] | –
Cn1ccnc1C(=O)c1cc(=O)c2ccccc2o1 | inconclusive: 37.9 µM [inhibitor, single point] | –
N#Cc1nc(Cc2ccccc2)oc1NCc1ccccc1Cl | inconclusive: 23.9 µM [inhibitor, partial curve, poor fit] | –
O=C(/C=C/c1ccccc1)Nc1cccc(S(=O)(=O)Nc2ccccc2F)c1 | active: 6.75 µM | –
CC1CCN(C(=O)Cn2nnc(-c3cccs3)n2)CC1 | inconclusive: 16.9 µM [inhibitor, partial curve] | –
CC(C)C1CCC(C(=O)N[C@H](Cc2ccccc2)C(=O)O)CC1 (stereo not given in full) | inconclusive: 19 µM [inhibitor, partial curve] | –
COc1ccc(C(O)Cn2ccsc2=NC(C)=O)cc1 (stereo not given) | – | inactive: -0.978%
CCOc1ccc(C2NC(=O)C(C#N)=C(S)N2c2ccc(OC)cc2)cc1OC (stereo not given) | active: 21.3 µM | –
O=C(COC(=O)CCN1C(=O)/C(=C\C=C\c2ccccc2)SC1=S)Nc1ccc(Br)cc1 | inconclusive: 23.9 µM [inhibitor, single point] | –
CC(=C\c1ccco1)/C=C1/SC(=S)N(CC(=O)O)C1=O | active: 16.9 µM | –
CCn1cc(Br)c(C(=O)Nc2ccc(Cl)c(Cl)c2)n1 | inconclusive: 15.1 µM [inhibitor, partial curve] | –
Cc1ccccc1OCc1n[nH]c(=S)n1-c1ccccc1 | inconclusive: 37.9 µM [inhibitor, partial curve, poor fit] | –
Cc1ccc(NC(=O)CSc2nc(-c3cccs3)nc3cc(=O)[nH]n23)cc1 | – | inactive: -11%
CC(=O)n1c(C=Nc2ccccc2)c(O)c2ccccc21 | active: 16.9 µM | –
O=C(C1=NN[C@@H]2C(=O)N(c3cccc(F)c3)C(=O)[C@H]12)c1ccc2ccccc2n1 | inconclusive: 37.9 µM [inhibitor, partial curve, poor fit] | –
CC(C)C(NC(=O)c1ccccc1NC(=O)c1ccccc1)C(=O)NCCCn1ccnc1 (stereo not given) | – | inactive: -0.274%
COc1cccc(CNC(=O)C2CCN(c3nnc(N4CCCC4=O)s3)CC2)c1 | – | inactive: 0.169%
CCCc1cc(C(=O)Nc2cccnc2Cl)no1 | inconclusive: 23.9 µM [inhibitor, partial curve] | –
CC(NC(=O)C1CCN(S(=O)(=O)c2cccc3nonc23)CC1)c1ccccc1 (stereo not given) | – | inactive: 1.71%
CCOC(=O)c1cnc2c(-c3ccccc3OC)c(C)nn2c1C | inconclusive: 37.9 µM [inhibitor, partial curve, poor fit] | –
Cc1cc(C)nc(/N=C(/NC(=O)Nc2cccc(Cl)c2)Nc2ccccc2)n1 | inconclusive: 7.57 µM [inhibitor, full curve] | –
